Target: T1, recombinant human TIGIT protein (Acrobiosystems) (human, UniProt Q495A1 22-141)
T1 construct: Bought recombinant protein; NP_776160.2; UniProt Q495A1-1
T1 sequence: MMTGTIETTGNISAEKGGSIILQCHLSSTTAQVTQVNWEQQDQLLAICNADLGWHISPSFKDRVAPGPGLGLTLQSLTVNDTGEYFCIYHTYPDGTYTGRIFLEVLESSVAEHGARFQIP
Assay: ELISA, plate coated with recombinant human TIGIT at 1 ug/ml, serial 1:3 dilutions from 61.097 nM, detection with anti-mouse/human IgG-HRP, OD 450 nm
Method: An ELISA plate was coated with recombinant human TIGIT protein (Acrobiosystems, China) at a concentration of 1 μg/ml dissolved in PBS (Phosphate-Buffered Saline) and incubated overnight at 4° C. The plate was blocked with blocking buffer (3% (v/v) skim milk in PBS) for 1 hour, and serially diluted anti-TIGIT monoclonal antibody (7A6) and the fusion protein ([7A6]-[TL-2]-[IL-15]; denoted as ‘7A615TL-2’) (starting concentration: 61.097 nM; serial 1:3 dilutions) were added to the coated plate. After incubation, anti-mouse/human IgG-HRP antibody (Abcam: 1:10000 dilution) was added to each well. The plate was developed with TMB solution and stopped with 1N HCl. The OD value was read at 450 nm using the GloMax® Explorer Fully Loaded.

B1: 7A615TL-2 fusion protein ([7A6]-[TL-2]-[IL-15]) (other)
heavy: QVQLQESGPGLVKPSQTLSLTCTVTGYSITSDYAWNWIRQPPGKGLEWMGYISYSGSARYNPSLKSRVTISRDTSKNQFSLKLSSVTAEDTATYYCARKGYPAYFAYWGQGTLVTVSSASTKGPSVFPLAPSSKSTSGGTAALGCLVKDYFPEPVTVSWNSGALTSGVHTFPAVLQSSGLYSLSSVVTVPSSSLGTQTYICNVNHKPSNTKVDKRV[human IgG1 Fc not listed]
light: DIQMTQSPSSLSASVGDRVSITCKASQDVSTAVAWYQQKPGQAPRLLIYSASYRYTGVPDRFSGSGSGTDFTLTISSLQPEDFATYYCQHHYSTPYTFGQGTKLEIKRTVAAPSVFIFPPSDEQLKSGTASVVCLLNNFYPREAKVQWKVDNALQSGNSQESVTEQDSKDSTYSLSSTLTLSKADYEKHKVYACEVTHQGLSSPVTKSFNRGECEAAAKEAAAKEAAAK[about 120 residues not listed]
notes: Anti-TIGIT IgG1/kappa antibody 7A6 (VH3/Vk5) with wild type IL-15 fused to the C-terminus of each light chain through the rigid linker V-2 (EAAAK)3; also called TIGIT mAb-(LC-(EAAAK)3-IL-15)2
  EC50 (read off the curve): ~1 nM

— patent US20260015417A1 (MEDIMABBIO, published 2026)
